Test results: publication PMC9911399, “Two distinct binding modes provide the RNA-binding protein RbFox with extraordinary sequence specificity”
Changes are numbered by the printed parent chain; changes in the protein carry UniProt numbers. The list shows a part of the results.

B1: AUGGGGU (DNA:RNA)
RNA: GGGAGACCGGAAUUCAGAUUGUCCAUGGGGUUUAAAUCCCGUCGUAGCCACCA
DNA 1: CAATCTGAATTCCGGTCTCCC
DNA 2: TGGTGGCTACGACGGGATT
B2: AGAUGUC (DNA:RNA)
RNA: B1 RNA with U26G, G27A, G28U, G30U, U31C
DNA 1: CAATCTGAATTCCGGTCTCCC
DNA 2: TGGTGGCTACGACGGGATT
B3: CGACAGA (DNA:RNA)
RNA: B1 RNA with A25C, U26G, G27A, G28C, G29A, U31A
DNA 1: CAATCTGAATTCCGGTCTCCC
DNA 2: TGGTGGCTACGACGGGATT
B4: GGUUGUU (DNA:RNA)
RNA: B1 RNA with A25G, U26G, G27U, G28U, G30U
DNA 1: CAATCTGAATTCCGGTCTCCC
DNA 2: TGGTGGCTACGACGGGATT
B5: AAAGAAU (DNA:RNA)
RNA: B1 RNA with U26A, G27A, G29A, G30A
DNA 1: CAATCTGAATTCCGGTCTCCC
DNA 2: TGGTGGCTACGACGGGATT
B6: GUAUGAG (DNA:RNA)
RNA: B1 RNA with A25G, G27A, G28U, G30A, U31G
DNA 1: CAATCTGAATTCCGGTCTCCC
DNA 2: TGGTGGCTACGACGGGATT
B7: GCACCCU (DNA:RNA)
RNA: B1 RNA with A25G, U26C, G27A, G28C, G29C, G30C
DNA 1: CAATCTGAATTCCGGTCTCCC
DNA 2: TGGTGGCTACGACGGGATT
B8: CAUCACG (DNA:RNA)
RNA: GGGAGACCGGAAUUCAGAUUGUCCCAUCACGUUAAAUCCCGUCGUAGCCACCA
DNA 1: CAATCTGAATTCCGGTCTCCC
DNA 2: TGGTGGCTACGACGGGATT
B9: GUGGCCC (DNA:RNA)
RNA: B1 RNA with A25G, G29C, G30C, U31C
DNA 1: CAATCTGAATTCCGGTCTCCC
DNA 2: TGGTGGCTACGACGGGATT
B10: UAGUGGG (DNA:RNA)
RNA: B1 RNA with A25U, U26A, G28U, U31G
DNA 1: CAATCTGAATTCCGGTCTCCC
DNA 2: TGGTGGCTACGACGGGATT
B11: CGCGAAC (DNA:RNA)
RNA: B8 RNA with A26G, U27C, C28G, C30A, G31C
DNA 1: CAATCTGAATTCCGGTCTCCC
DNA 2: TGGTGGCTACGACGGGATT
B12: UUAGGUU (DNA:RNA)
RNA: B1 RNA with A25U, G27A, G30U
DNA 1: CAATCTGAATTCCGGTCTCCC
DNA 2: TGGTGGCTACGACGGGATT
B13: UGCUUCA (DNA:RNA)
RNA: B8 RNA with C25U, A26G, U27C, C28U, A29U, G31A
DNA 1: CAATCTGAATTCCGGTCTCCC
DNA 2: TGGTGGCTACGACGGGATT
B14: UGAGGUG (DNA:RNA)
RNA: B1 RNA with A25U, U26G, G27A, G30U, U31G
DNA 1: CAATCTGAATTCCGGTCTCCC
DNA 2: TGGTGGCTACGACGGGATT
B15: UCCUAGA (DNA:RNA)
RNA: B1 RNA with A25U, U26C, G27C, G28U, G29A, U31A
DNA 1: CAATCTGAATTCCGGTCTCCC
DNA 2: TGGTGGCTACGACGGGATT
B16: ACAAGUA (DNA:RNA)
RNA: B1 RNA with U26C, G27A, G28A, G30U, U31A
DNA 1: CAATCTGAATTCCGGTCTCCC
DNA 2: TGGTGGCTACGACGGGATT
B17: CCAUGAG (DNA:RNA)
RNA: B8 RNA with A26C, U27A, C28U, A29G, C30A
DNA 1: CAATCTGAATTCCGGTCTCCC
DNA 2: TGGTGGCTACGACGGGATT
B18: CGUGAUU (DNA:RNA)
RNA: B8 RNA with A26G, C28G, C30U, G31U
DNA 1: CAATCTGAATTCCGGTCTCCC
DNA 2: TGGTGGCTACGACGGGATT
B19: CUCCGUC (DNA:RNA)
RNA: B1 RNA with A25C, G27C, G28C, G30U, U31C
DNA 1: CAATCTGAATTCCGGTCTCCC
DNA 2: TGGTGGCTACGACGGGATT
B20: AGGGCCA (DNA:RNA)
RNA: B1 RNA with U26G, G29C, G30C, U31A
DNA 1: CAATCTGAATTCCGGTCTCCC
DNA 2: TGGTGGCTACGACGGGATT

target: T1, RBFOX1 RRM RbFoxmut (Fox-RRM*) (Homo sapiens, UniProt Q9NWB1 109-208, R118D;E147R;N151S;E152T); assay: EMSA; HiTS-Eq, 1 nM pool, 10 min; buffer printed only for the single-RNA assays: 10 mM Tris pH 7.5, 150 mM NaCl, 3.4 mM EDTA, 0.001% NP-40, 30 C; conditions: tags: His6 N-terminal (pET28a); label: 5' 32P
T1 sequence: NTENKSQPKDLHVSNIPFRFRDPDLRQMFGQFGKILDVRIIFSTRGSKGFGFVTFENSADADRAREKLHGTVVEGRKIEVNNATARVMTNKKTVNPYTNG
Summary of the method: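 A pool of RNA with 7 randomized nucleotides, 5′-radiolabelled and with DNA-annealed flanks, was equilibrated at 1 nM for 10 min in 50 µL with purified RbFox RRM, wild type or mutant, across increasing protein concentrations. Free RNA was separated by 8% native PAGE, excised, reverse-transcribed, barcoded by PCR and sequenced. Relative association constants were obtained from read-count changes of each RNA species versus the control reaction and normalised to the cognate motif.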

Binder | binding signal
B1 | 0.136 KA relative to UGCAUGU
B2 | 0.141 KA relative to UGCAUGU
B3 | 0.0472 KA relative to UGCAUGU
B4 | 0.147 KA relative to UGCAUGU
B5 | 0.0976 KA relative to UGCAUGU
B6 | 0.513 KA relative to UGCAUGU
B7 | 0.0722 KA relative to UGCAUGU
B8 | 0.124 KA relative to UGCAUGU
B9 | 0.0951 KA relative to UGCAUGU
B10 | 0.109 KA relative to UGCAUGU
B11 | 0.0649 KA relative to UGCAUGU
B12 | 0.108 KA relative to UGCAUGU
B13 | 0.21 KA relative to UGCAUGU
B14 | 0.125 KA relative to UGCAUGU
B15 | 0.138 KA relative to UGCAUGU
B16 | 0.153 KA relative to UGCAUGU
B17 | 0.0979 KA relative to UGCAUGU
B18 | 0.106 KA relative to UGCAUGU
B19 | 0.116 KA relative to UGCAUGU
B20 | 0.0783 KA relative to UGCAUGU
